Measurements reported in PubChem BioAssay AID1159614 (National Center for Advancing Translational Sciences (NCATS), 2016).
Among all 45,000 compounds or so, about 65 (0.1%) were called active. Calls come from the whole dose curve; as a rule, active = well fitted activation curve with a large enough effect; inconclusive = small, poorly fitted or top-dose-only effect; inactive = no such curve, though single readings can be large or run the other way. The list shows a part of the results.

These compounds were tested against Galactocerebrosidase (Homo sapiens) (UniProt P54803) (assay: A Novel Cell-Based Assay to Identify Small Molecules for B -Galactocerebrosidase). Settings: 145M-Twi-hGALC-G270D cells (Twitcher mouse brain line with human GALC G270D), HMU-beta-Gal fluorescence, 48 h; series mostly up to 57.5 µM; activation: at the top concentration.
Chain of UniProt P54803 (P54803 whole entry, looked up): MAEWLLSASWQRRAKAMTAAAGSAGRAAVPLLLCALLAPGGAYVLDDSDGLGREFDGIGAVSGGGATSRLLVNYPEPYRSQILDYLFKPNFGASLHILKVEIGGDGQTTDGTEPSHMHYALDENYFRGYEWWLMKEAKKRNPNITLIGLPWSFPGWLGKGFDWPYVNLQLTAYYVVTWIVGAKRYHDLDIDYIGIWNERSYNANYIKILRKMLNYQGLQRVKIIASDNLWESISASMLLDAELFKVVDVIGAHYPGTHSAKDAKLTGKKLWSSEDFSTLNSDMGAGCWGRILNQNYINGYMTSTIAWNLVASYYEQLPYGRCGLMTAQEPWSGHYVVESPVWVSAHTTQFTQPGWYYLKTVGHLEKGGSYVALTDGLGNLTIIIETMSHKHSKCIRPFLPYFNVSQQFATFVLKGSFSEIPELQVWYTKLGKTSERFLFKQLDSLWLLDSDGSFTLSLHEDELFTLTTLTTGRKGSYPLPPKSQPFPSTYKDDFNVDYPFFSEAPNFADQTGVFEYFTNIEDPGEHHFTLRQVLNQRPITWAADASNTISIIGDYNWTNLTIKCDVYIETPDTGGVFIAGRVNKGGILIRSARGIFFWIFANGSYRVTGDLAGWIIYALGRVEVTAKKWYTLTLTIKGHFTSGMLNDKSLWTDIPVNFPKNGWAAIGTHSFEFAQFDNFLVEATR
Summary of the method: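 Fluorescence readout: HMU-β-gal cleavage by mutant GALC (0.1 mM final, citrate/phosphate pH 5.2 with 1 mg/mL taurocholate), stopped with carbonate/bicarbonate plus Triton X-100. Cells: murine Twitcher 145M-Twi expressing human G270D GALC; qHTS for activators.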
Note: 0% is about no effect; nearly all actives have a fitted effect of over 65% in size.

activation, inactive:
COc1ccc(-c2nc(CSCC(=O)N3CCN(c4cc(Cl)ccc4C)CC3)c(C)o2)cc1 -30.5%, CCOc1ccc(CCNC(=O)CS(=O)(=O)Cc2nc(-c3ccc(OC)cc3)oc2C)cc1 -23.3%, Cc1cccc2sc(N(CCN(C)C)C(=O)c3ccc4c(c3)OCCO4)nc12 -4.71%, COc1ccc(Cn2c(=O)n(Cc3ccco3)c(=O)c3oc4ccccc4c32)cc1 -5.94%, Cc1nc2cc(-c3ccccc3)nn2c(C)c1CCC(=O)Nc1ccc(F)cc1F -24.2%, Cc1ccc(CNC(=O)CCCn2c(=O)c3ccccc3n(CC(=O)Nc3ccc(C)cc3)c2=O)cc1 -2.92%, CCC(C(=O)Nc1ccc(C)c(C)c1)n1c(=O)c(C(F)(F)F)nc2ccccc21 (stereo unspecified) 6.71%, COc1ccc(-c2nc(CS(=O)(=O)CC(=O)NCc3ccccc3Br)c(C)o2)cc1 -13.7%, O=C(NCCCN1CCCCCC1)c1ccc2c(c1)sc1nc(-c3ccccc3)cn12 13%, COc1cccc(NC(=O)Cn2c(=O)n(CCC(=O)NCCc3ccc(Cl)cc3)c(=O)c3ccccc32)c1 -6.47%, CCOC(=O)c1c(NC(=O)COc2ccc(Cl)cc2C)sc2c1CCCCC2 -23.4%, COc1cc(-c2noc(-c3ccc(NCC4CCCO4)c([N+](=O)[O-])c3)n2)cc(OC)c1OC (stereo unspecified) -3.07%, COc1ccc(NC(=O)CC2C(=O)N(c3ccc(OC)cc3)C(=O)N2CCC2=CCCCC2)cc1 (stereo unspecified) -9.66%, Cc1ccc(C)c(Nc2cc(C(=O)NC3CCCC3)c3ccccc3n2)c1 -1.34%, COc1ccc(CCNC(=O)Cc2c(C)c3cc4c(C(C)(C)C)coc4c(C)c3oc2=O)cc1 -9.13%, Cl/C(=C\n1cncn1)c1ccc(Cl)cc1Cl -7.18%, COc1cc(NC(=O)CSc2nc3ncccc3o2)cc(OC)c1 -17%, CC(C)(C)C1CCc2c(sc(NC(=O)Cn3nnc(-c4ccccc4F)n3)c2C#N)C1 (stereo unspecified) -10.7%, CCOC(=O)c1cc(-c2ccccc2)n(-c2cccc(C(=O)Nc3ccc(OC)cc3)c2)c1C -9.93%, CCOc1ccc(N(C(=O)Cn2nnc3ccccc32)C(C(=O)NCc2ccccc2)c2ccc(OC)cc2)cc1 (stereo unspecified) -12.6%, O=C(Cn1c(=O)c2cccn2c2ccccc21)Nc1cc(F)ccc1F -13.8%, COc1ccc(N2CCN(C(=O)c3cn(CC(C)C)c(=O)c4c3c3ccccc3n4C)CC2)cc1 -23.7%, CC(=O)NCc1c(I)c(NC(C)=O)c(I)c(C(=O)O)c1I -16.1%, CCc1ccc(-c2nn(CC(=O)Nc3ccccc3)c3c2cnc2ccc(F)cc23)cc1 -8.75%, CCN(CC)CCNC(=O)c1cn(CC)c2ccc(S(=O)(=O)N3CCOCC3)cc2c1=O -18%, Cc1ccc(CCNC(=O)Cn2nc(-c3ccc(C)cc3)ccc2=O)cc1 -15.1%, COc1ccc(OCC(=O)OCc2cc(=O)n3nc(C4CCCCC4)sc3n2)cc1 -13.7%, CC(=O)Nc1cccc(NC(=O)C(=O)NCCc2sc(-c3ccccc3)nc2C)c1 -19.3%, COc1ccc(-c2[nH]ncc2C(=O)NCc2ccccc2C)cc1 -14.9%, CCC(C(=O)NCCc1ccc(SC)cc1)n1nc(C)c2sc3ccccc3c2c1=O (stereo unspecified) -6.91%, Cc1onc(-c2ccccc2Cl)c1C(=O)Oc1cc(F)cc(F)c1 -26.6%, COC(=O)c1ccccc1NC(=O)Cn1c(=O)n(-c2cccc(OC)c2)c(=O)c2c(C)c(C(=O)N(C)C)sc21 -7.41%, CC(=O)N1CCCc2cc(S(=O)(=O)N3CCC(C(=O)NCc4ccc(C)cc4)CC3)ccc21 -8.4%, O=C(c1ccc2c(c1)N(Cc1ccc(F)cc1)C(=O)c1ccccc1S2=O)N1CCC(Cc2ccccc2)CC1 (stereo unspecified) -11.1%, O=C(Cn1ncc2ccc(Cl)cc21)NCc1ccc(F)cc1 -12.3%, OCc1c[nH]c2ccccc12 -4.14% [at 114 µM], Cc1ccc(C)c(NC(=O)CSc2ncc(S(=O)(=O)c3ccc(C)c(Cl)c3)c(=O)[nH]2)c1 -9.75%, Cc1c(Cl)cccc1NC(=O)Nc1nnc(N2CCCCCC2)s1 -22.9%, Cc1ccc(C(=O)Nc2cccc(C(=O)O)c2)cc1S(=O)(=O)N1CCCC1 -10.6%, CCc1ccc(CNC(=O)c2ccc(NC(=O)N3CCCCc4ccccc43)cc2)cc1 -11.3%, COc1ccc(Cn2c(SCc3ccc(C(=O)NC(C)C)cc3)nc3cccnc32)cc1 -15.8%, COc1ccccc1NC(=O)c1cccc(S(=O)(=O)N2CCCCCC2)c1 12.5%, CCC1CN(C(=O)N2CCC(C(=O)NCc3cccc(C)c3)CC2)c2ccccc2O1 (stereo unspecified) -12.1%, CCOc1ccccc1N(CC)C(=O)c1cc2c(=O)[nH]c3ccc(C)cc3c2s1 -14.4%, COC(=O)c1scc(-c2ccc(C)cc2)c1S(=O)(=O)Nc1cc(OC)c(OC)c(OC)c1 -9.16%, COc1ccc(CNC(=O)c2c3c(nc4ccccc24)C(=O)N(C2CCCCC2)C3)c(OC)c1 -21%, O=C(Cn1c(=O)nc(-c2ccccc2F)c2cc(Cl)ccc21)N1CCN(c2ccccc2F)CC1 -21%, CCCCC(CC)CNC(=O)CN1C(=O)CSc2ccc(S(=O)(=O)N3CCOCC3)cc21 (stereo unspecified) 4.83%, CCN(c1cccc(C)c1)S(=O)(=O)c1ccc2[nH]cc(C(=O)NCCCOC)c(=O)c2c1 0.0925%, CC(=O)Nc1nonc1-c1nnc(SCC(=O)N(C)c2ccccc2)n1C -9.9%, O=C(Cn1cc(S(=O)(=O)Cc2cccc(Cl)c2)c2ccccc21)NCCc1ccccc1 -10.3%, Clc1cccc(-n2ncc3c(N4CCCCC4)ncnc32)c1 -14.6%, Cc1ccc(NC(=O)/C(C#N)=C/c2ccc(C(C)C)cc2)cc1C -12.6%, CCOC(=O)c1cnc2c(C)c(Cl)ccc2c1NCCc1ccccc1 -6.73%, COc1ccc(CNC(=O)C(=O)Nc2ccc(OC)cc2OC)cc1 -10.9%, O=C(COc1ccccc1Cl)NCC1(N2CCOCC2)CCCCC1 0.21%, COc1cc(OC)c(NC(=O)C2CCCN(c3ncnc4c3nc3n4CCCCC3)C2)cc1Cl (stereo unspecified) -30.2%, CCc1ccc(OCC(=O)Nc2cc3oc4ccccc4c3cc2OC)cc1 -0.727%, Cc1ccccc1-c1nc(CS(=O)(=O)CC(=O)NCC(C)c2ccccc2)c(C)o1 (stereo unspecified) -3.93%, CCc1ccccc1NC(=O)Cn1c(=O)n(Cc2ccc3c(c2)OCO3)c(=O)c2ccc(C(=O)NC3CCCCC3)cc21 -11.2%, CCN1CCN(CCCNC(=O)c2cc3c(=O)n(C)c4ccccc4c3s2)CC1 -15.4%
